Tests used:
[1] = Single-injection body weight gain in wild-type mice; format: in vivo; settings: single 25 mg/kg subcutaneous injection, after 4 days, vs vehicle
Experimental: To investigate the target engagement of exemplary ActRIIB-ECD polypeptide constructs in vivo, mice (n=6/group) were injected with given agents (25 mg/kg, subcutaneous injection), and sacrificed after 4 days to assess body weight gain.

[2] = system: diet-induced obese (DIO) mice; experiment: Body composition and metabolism in diet-induced obese (DIO) mice; format: in vivo
Experimental: (§1) Experiments were performed to assess the effects of P1229 on body composition and metabolism in diet-induced obese (DIO) mice. DIO mice were purchased from Jackson Laboratories (#380050). Briefly, mice were fed a high-fat diet (HFD, 60% kcal from fat) from 6 weeks of age until 22 weeks of age (total of 16 weeks on the HFD). […] After 3 weeks of treatments, some animals were sacrificed and scanned by EchoMRI […] (FIGS. 11A-F), while others were sacrificed for tissue collection and RNA analysis. Animals were maintained on the HFD throughout the acclimatization and treatment periods. The murine version of bimagrumab used for these experiments comprises the heavy chain amino acid sequence of SEQ ID NO: 376 and the light chain sequence of SEQ ID NO: 377.

[3] = system: follicle-stimulating hormone (FSH); experiment: FSH production in DIO mice; format: in vivo; settings: 3 weeks of treatment
Experimental: as §1
Follicle-stimulating hormone (FSH) is a known biomarker of in vivo target engagement for activin receptor-based traps (See Attie et al. (2013). Muscle Nerve, 47: 416-423). To further validate in vivo target engagement for exemplary agents, FSH production was evaluated in DIO mice, as described above.

BMP-9 = molecular target: T1, BMP-9 (Homo sapiens, UniProt Q9UK05); experiment: Small-scale BMP-9 ELISA with CHO supernatants; format: binding; settings: BMP-9 10 ng/mL
T1 sequence (Q9UK05 320-429): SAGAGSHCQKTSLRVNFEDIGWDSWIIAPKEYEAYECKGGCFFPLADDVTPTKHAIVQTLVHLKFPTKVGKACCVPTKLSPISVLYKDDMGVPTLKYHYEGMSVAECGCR

activin A = molecular target: T2, activin A (Homo sapiens, UniProt P08476); experiment: Small-scale activin A ELISA with CHO supernatants; settings: 1 μg/mL protein, 30 ng/mL activin A, loss of signal = binding
T2 sequence (P08476 311-426): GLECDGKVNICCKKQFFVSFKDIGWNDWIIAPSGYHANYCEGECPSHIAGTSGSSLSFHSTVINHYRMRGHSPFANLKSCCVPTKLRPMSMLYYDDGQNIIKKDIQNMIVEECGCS
Outline: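 ActRIIB-ECD-Fc fusions were expressed transiently in CHO cells and harvested after 7 days. Supernatant protein at 1 μg/mL final was premixed with human activin A at 30 ng/mL final and incubated 1 h at RT on an anti-activin A antibody plate. Loss of signal was expressed as % of wild-type ActRIIB-Fc.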

B1: P1373: hActRIIB L33W, 19 aa linker, IgG1-DL Fc; SEQ ID 232 (protein)
chain: ETRECIYYNANWELERTNQSGLERCEGEQDKRWHCYASWRNSSGTIELVKKGCWLDDFNCYDRQECVATEENPQVYFCCCEGNFCNERFTHLPEAGGPEVTYEPPPTGGGGSGGGGSGGGGSGG[human IgG1 Fc and a few adjoining residues not spelt out]
[1]
  body weight gain: statistically significant body weight gain
[2]
  hepatic Ahsg expression: reduced Ahsg expression
  hepatic Fgf21 expression: reduced
  hepatic Inhbe expression: significantly decreased Inhbe expression
[2]; 3 weeks
  Mss51 gene expression in gastrocnemius muscle: reduced Mss51 gene expression
  Serpine1:Id1 expression ratio in soleus muscle: lower Serpine1:Id1 expression ratio
  ratio of lean mass to fat mass: higher
[2]; 3 weeks s.c., P75, P1229 25 mg/kg twice weekly, P1373 5, 20, 50 mg/kg twice weekly, P1307 20 mg/kg weekly
  fat mass and lean mass (EchoMRI): fat loss with concomitant lean mass gain
[3]
  FSH production: significant decreases in FSH production
BMP-9
  BMP-9 binding, ELISA signal relative to P75: near-undetectable binding to BMP-9
Activin A
  activin A binding, ELISA signal relative to P75: potent activin A binding
